Laboratory results published in the supplement of paper PMC4604168 (melanoma cell lines).
This is one part of the list. Many values rest on one well or one pass, so single values are uncertain.

Tests used:
Assay in all cases: cell count relative to DMSO control; melanoma cells; higher = more viable cells
Details in all cases: library dose: low library concentration; 72 h
[1] = tested on: MZ2-MEL
[2] = tested on: MeWo
[3] = tested on: RPMI7951
[4] = tested on: RVH-421
[5] = tested on: SkMel28
[6] = tested on: SkMel2
[7] = tested on: SkMel30
[8] = tested on: UACC62
[9] = tested on: WM115
[10] = tested on: WM1716
[11] = tested on: WM1745
[12] = tested on: WM3526
[13] = tested on: WM3619
[14] = tested on: WM451Lu
[15] = tested on: SkMel5
[16] = tested on: UACC257
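Also: cell number obtained by counting DAPI-stained nuclei in high-throughput microscope images with image analysis software, screen run in 1,536-well plates.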

Row | SMILES | cell count [1] [%] | cell count [2] [%] | cell count [3] [%] | cell count [4] [%] | cell count [5] [%] | cell count [6] [%] | cell count [7] [%] | cell count [8] [%] | cell count [9] [%] | cell count [10] [%] | cell count [11] [%] | cell count [12] [%] | cell count [13] [%] | cell count [14] [%] | cell count [15] [%] | cell count [16] [%]
1 | O=c1[nH]nc(Sc2ncc([N+](=O)[O-])s2)n1-c1ccc2c(c1)OCCO2 + C[C@@H](Oc1cc(-c2cnn(C3CCNCC3)c2)cnc1N)c1c(Cl)ccc(F)c1Cl [Crizotinib] (first compound 0.2 µM, partner dose 0.2 µM) | 107 | 92.9 | 123 | 89.1 | 108 | 95.8 | 101 | 98.2 | 113 | 119 | 103 | 107 | 99.1 | 119 |  | 
2 | O=c1[nH]nc(Sc2ncc([N+](=O)[O-])s2)n1-c1ccc2c(c1)OCCO2 + COc1cc(Nc2ncc(F)c(Nc3ccc4c(n3)NC(=O)C(C)(C)O4)n2)cc(OC)c1OC [Tamatinib] (first compound 0.2 µM, partner dose 0.4 µM) | 93.8 | 93.8 | 80.8 | 101 | 85.1 | 94.1 | 78.9 | 88 | 76.2 | 88.7 | 75.1 | 88.5 | 101 | 86.6 | 104 | 73.7
3 | CC1(C)NC(=O)N(c2ccc([N+](=O)[O-])c(C(F)(F)F)c2)C1=O [nilutamide] + CN(C)S(=O)(=O)c1ccc2c(c1)/C(=C/c1cc3c([nH]1)CCCC3)C(=O)N2 [SU6656] (first compound 1 µM, partner dose 0.4 µM) | 108 | 99.8 | 93.1 | 82 | 91.8 | 104 | 115 | 97.6 | 73.7 | 115 | 107 | 93.5 | 116 | 82.9 | 97.1 | 101
4 | O=c1[nH]nc(Sc2ncc([N+](=O)[O-])s2)n1-c1ccc2c(c1)OCCO2 + COCC[n+]1c2c(n(Cc3cnccn3)c1C)C(=O)c1ccccc1C2=O [YM155] (first compound 0.2 µM, partner dose 0.0004 µM) | 59.7 | 93.6 | 80.7 | 99 | 83.2 | 102 | 112 | 87.9 | 105 | 97.8 | 97.7 | 95.9 | 102 | 73.9 |  | 
5 | O=c1[nH]nc(Sc2ncc([N+](=O)[O-])s2)n1-c1ccc2c(c1)OCCO2 + COc1ccc(C2=N[C@@H](c3ccc(Cl)cc3)[C@@H](c3ccc(Cl)cc3)N2C(=O)N2CCNC(=O)C2)c(OC(C)C)c1 [Nutlin-3] (first compound 0.2 µM, partner dose 0.1 µM) | 96 | 110 | 106 | 104 | 96.4 | 97 | 94.5 | 90.1 | 100 | 107 | 81.9 | 103 | 112 | 103 |  | 
6 | O=C(O)c1ccc(-c2c[nH]c3ncc(-c4ccccc4)cc23)cc1C1CCCC1 + COc1cc2c(Oc3ccc4[nH]c(C)cc4c3F)ncnc2cc1OCCCN1CCCC1 [cediranib] (first compound 0.16 µM, partner dose 0.4 µM) | 90.4 | 91.3 | 88.2 | 59.9 | 88.6 | 85 | 93.1 | 88 | 91.4 | 88.2 | 106 | 103 | 95.7 | 87.1 | 71.5 | 90.2
7 | O=c1[nH]nc(Sc2ncc([N+](=O)[O-])s2)n1-c1ccc2c(c1)OCCO2 + NC1(c2ccc(-c3nc4ccn5c(=O)[nH]nc5c4cc3-c3ccccc3)cc2)CCC1 [MK2206] (first compound 0.2 µM, partner dose 0.4 µM) | 96.3 | 87.9 | 106 | 92.4 | 86.7 | 85.9 | 76.9 | 82 | 84.5 | 104 | 95.8 | 70.1 | 83.3 | 96.6 |  | 
8 | O=c1[nH]nc(Sc2ncc([N+](=O)[O-])s2)n1-c1ccc2c(c1)OCCO2 + Cn1sc(=O)n(Cc2ccccc2)c1=O [TDZD-8] (first compound 0.2 µM, partner dose 0.4 µM) | 95.5 | 93 | 104 | 104 | 90.7 | 90.9 | 74.1 | 81.2 | 89.3 | 82.3 | 91.5 | 115 | 84.6 | 98 |  | 
9 | O=c1[nH]nc(Sc2ncc([N+](=O)[O-])s2)n1-c1ccc2c(c1)OCCO2 + Cn1c(Nc2ccc(C(F)(F)F)cc2)nc2cc(Oc3ccnc(-c4ncc(C(F)(F)F)[nH]4)c3)ccc21 [CHIR265] (first compound 0.2 µM, partner dose 0.08 µM) | 89.9 | 72.8 | 68.9 | 68.3 | 80.8 | 92.4 | 55.8 | 55.1 | 67.3 | 91.5 | 73 | 63.5 | 91.7 | 92.3 |  | 
10 | O=c1[nH]nc(Sc2ncc([N+](=O)[O-])s2)n1-c1ccc2c(c1)OCCO2 + C[C@@H](N)c1ccc(C(=O)Nc2ccnc3[nH]ccc23)cc1 [RKI983] (first compound 0.2 µM, partner dose 0.4 µM) | 80.2 | 87.2 | 80.3 | 76.2 | 87.6 | 90.2 | 94.8 | 83.7 | 101 | 83 | 95.2 | 128 | 88.3 | 74.4 |  | 
11 | O=c1[nH]nc(Sc2ncc([N+](=O)[O-])s2)n1-c1ccc2c(c1)OCCO2 + Cc1ccc(Nc2nccc(N(C)c3ccc4c(C)n(C)nc4c3)n2)cc1S(N)(=O)=O [Pazopanib] (first compound 0.2 µM, partner dose 0.4 µM) | 75.4 | 109 | 98.1 | 96.8 | 106 | 104 | 85.3 | 87.8 | 98.8 | 83.2 | 95.3 | 97.7 | 84.7 | 93.1 |  | 
12 | O=c1[nH]nc(Sc2ncc([N+](=O)[O-])s2)n1-c1ccc2c(c1)OCCO2 + Nc1ncn([C@H]2C[C@H](O)[C@@H](CO)O2)c(=O)n1 [decitabine] (first compound 0.2 µM, partner dose 0.1 µM) | 79.8 | 102 | 88.9 | 68.1 | 88.9 | 101 | 107 | 85.6 | 80.4 | 87.7 | 96.2 | 110 | 94.2 | 97.3 |  | 
13 | O=c1[nH]nc(Sc2ncc([N+](=O)[O-])s2)n1-c1ccc2c(c1)OCCO2 + Cc1nc(Nc2ncc(C(=O)Nc3c(C)cccc3Cl)s2)cc(N2CCN(CCO)CC2)n1 [dasatanib] (first compound 0.2 µM, partner dose 0.004 µM) | 83.2 | 86.3 | 78.5 | 98.2 | 72.8 | 93.7 | 108 | 87.7 | 82.6 | 75.7 | 77.2 | 102 | 92.9 | 99 |  | 
14 | O=c1[nH]nc(Sc2ncc([N+](=O)[O-])s2)n1-c1ccc2c(c1)OCCO2 + CCCCCCCCc1ccc(CCC(N)(CO)CO)cc1 [fingolimod] (first compound 0.2 µM, partner dose 2 µM) | 91.8 | 98.6 | 74.2 | 118 | 88.1 | 97.4 | 117 | 96.1 | 98.2 | 88 | 96.5 | 100 | 95.4 | 103 |  | 
